Results: publication PMC8119438
These are yes or no findings as the source states them, for the method shown. For some of these results: Binding seen in cells or lysates may run through a third protein. Some results given as binding are weak or reduced against the parent protein; the word gives no strength. Where a sequence is shown, tags or fusion partners need not be part of it.

T1: GST-RILP (mouse) (UniProt Q5ND29)
T1 sequence: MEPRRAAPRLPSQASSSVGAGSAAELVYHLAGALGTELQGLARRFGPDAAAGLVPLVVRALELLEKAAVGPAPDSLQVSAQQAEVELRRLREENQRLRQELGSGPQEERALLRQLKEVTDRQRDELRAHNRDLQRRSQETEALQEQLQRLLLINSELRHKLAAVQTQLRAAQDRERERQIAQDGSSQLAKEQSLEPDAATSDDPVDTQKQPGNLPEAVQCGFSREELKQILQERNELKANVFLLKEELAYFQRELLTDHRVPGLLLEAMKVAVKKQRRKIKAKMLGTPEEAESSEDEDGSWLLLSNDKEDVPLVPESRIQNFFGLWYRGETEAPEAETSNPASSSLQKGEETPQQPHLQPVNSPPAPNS

T2: T7-RILP-L2 (mouse) (UniProt Q99LE1)
T2 sequence: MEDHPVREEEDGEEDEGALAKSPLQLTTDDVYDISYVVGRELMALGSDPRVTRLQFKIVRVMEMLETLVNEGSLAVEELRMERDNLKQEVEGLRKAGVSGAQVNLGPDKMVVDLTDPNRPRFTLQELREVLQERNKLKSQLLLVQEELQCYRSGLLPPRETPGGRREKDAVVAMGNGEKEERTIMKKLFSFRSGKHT

T3: GST-RILP-L1 (mouse) (UniProt Q9JJC6)
T3 sequence: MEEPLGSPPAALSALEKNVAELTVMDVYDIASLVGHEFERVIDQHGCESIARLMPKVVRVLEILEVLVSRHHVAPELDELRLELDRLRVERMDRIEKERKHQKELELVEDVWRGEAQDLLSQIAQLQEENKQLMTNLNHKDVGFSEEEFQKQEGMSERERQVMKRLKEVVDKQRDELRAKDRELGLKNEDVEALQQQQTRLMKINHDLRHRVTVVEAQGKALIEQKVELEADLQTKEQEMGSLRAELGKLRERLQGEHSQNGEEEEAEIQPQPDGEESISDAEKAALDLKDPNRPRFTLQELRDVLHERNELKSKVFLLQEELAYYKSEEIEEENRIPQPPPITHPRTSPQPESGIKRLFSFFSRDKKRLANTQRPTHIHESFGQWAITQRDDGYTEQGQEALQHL

T4: GST-RILP-L2 (mouse) (UniProt Q99LE1)
T4 sequence: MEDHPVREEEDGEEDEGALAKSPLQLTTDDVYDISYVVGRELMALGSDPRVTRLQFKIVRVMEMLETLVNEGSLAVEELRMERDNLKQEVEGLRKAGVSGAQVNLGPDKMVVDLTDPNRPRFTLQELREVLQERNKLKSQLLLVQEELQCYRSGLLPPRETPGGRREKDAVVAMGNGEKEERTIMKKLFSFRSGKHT

T5: GFP-RILP-L1 (mouse) (UniProt Q9JJC6)
T5 sequence: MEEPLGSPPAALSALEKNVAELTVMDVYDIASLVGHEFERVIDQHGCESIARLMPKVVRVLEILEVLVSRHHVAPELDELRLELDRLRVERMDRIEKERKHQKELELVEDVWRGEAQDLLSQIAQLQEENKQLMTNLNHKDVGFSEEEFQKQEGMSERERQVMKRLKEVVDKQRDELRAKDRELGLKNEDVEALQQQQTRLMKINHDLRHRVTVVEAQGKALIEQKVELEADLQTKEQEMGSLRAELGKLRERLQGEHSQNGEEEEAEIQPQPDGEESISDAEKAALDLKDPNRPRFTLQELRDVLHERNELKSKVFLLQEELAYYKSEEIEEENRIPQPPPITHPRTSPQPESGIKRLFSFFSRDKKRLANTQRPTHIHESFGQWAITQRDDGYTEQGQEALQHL

T6: GFP-RILP-L2 (mouse) (UniProt Q99LE1)
T6 sequence: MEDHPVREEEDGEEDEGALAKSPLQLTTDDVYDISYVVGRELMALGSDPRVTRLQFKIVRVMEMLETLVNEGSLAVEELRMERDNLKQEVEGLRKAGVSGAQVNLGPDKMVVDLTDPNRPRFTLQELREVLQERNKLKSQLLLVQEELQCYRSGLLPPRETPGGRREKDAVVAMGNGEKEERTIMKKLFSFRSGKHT

T7: GFP-RILP (mouse) (UniProt Q5ND29)
T7 sequence: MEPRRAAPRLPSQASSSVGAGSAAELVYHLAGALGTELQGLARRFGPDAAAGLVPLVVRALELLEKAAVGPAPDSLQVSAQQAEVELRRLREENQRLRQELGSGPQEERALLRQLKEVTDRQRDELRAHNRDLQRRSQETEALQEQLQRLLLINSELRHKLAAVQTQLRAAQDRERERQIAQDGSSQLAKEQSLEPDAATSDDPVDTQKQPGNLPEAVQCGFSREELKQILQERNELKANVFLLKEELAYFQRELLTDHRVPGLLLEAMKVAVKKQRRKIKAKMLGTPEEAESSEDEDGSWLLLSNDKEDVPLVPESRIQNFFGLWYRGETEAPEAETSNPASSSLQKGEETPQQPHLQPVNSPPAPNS

T8: RILP-L2 (yeast two-hybrid fusions) (mouse) (UniProt Q99LE1)
T8 sequence: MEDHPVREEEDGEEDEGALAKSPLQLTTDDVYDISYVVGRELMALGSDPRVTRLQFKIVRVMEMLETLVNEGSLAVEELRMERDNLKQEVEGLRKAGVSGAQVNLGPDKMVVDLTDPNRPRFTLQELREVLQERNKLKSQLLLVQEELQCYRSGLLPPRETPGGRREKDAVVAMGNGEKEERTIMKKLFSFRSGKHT


How the values were obtained:
GST-RILP (mouse) [1] = biological target: T1, GST-RILP (mouse); assay: pull-down; GST-RILP, GST-RILP-L1 or GST-RILP-L2 on glutathione agarose beads incubated with RBL cell lysates (GFP fusions; Rab12), 18 h at 4 °C, 0.5 mM GTPγS (Supplementary figure S2); only the target purified
T7-RILP-L2 (mouse) = biological target: T2, T7-RILP-L2 (mouse); assay: co-IP; reciprocal: same co-transfected RBL lysates immunoprecipitated overnight at 4 °C with mouse monoclonal anti-T7; blot with anti-GFP (Fig. 1c,d)
GST-RILP (mouse) [2] = biological target: T1, GST-RILP (mouse); assay: pull-down; 5 μg GST-RILP on glutathione agarose beads, 4 h at 4 °C with vehicle (2 or 4% DMSO) or 200 μM peptide 1, peptide 2 or both, then 18 h with RBL cell lysate (500 μg), 0.5 mM GTPγS; blot anti-Rab12; only the target purified
GST-RILP-L1 (mouse) = biological target: T3, GST-RILP-L1 (mouse); assay: pull-down; GST-RILP, GST-RILP-L1 or GST-RILP-L2 on glutathione agarose beads incubated with RBL cell lysates (GFP fusions; Rab12), 18 h at 4 °C, 0.5 mM GTPγS (Supplementary figure S2); only the target purified
GST-RILP-L2 (mouse) = biological target: T4, GST-RILP-L2 (mouse); assay: as above
GFP-RILP-L1 (mouse) = biological target: T5, GFP-RILP-L1 (mouse); assay: co-IP; RBL cells co-transfected with pEGFP and pEF-T7 constructs; lysate (500 μg, buffer A: 50 mM Hepes pH 7.4, 250 mM NaCl, 1 mM MgCl2, 1% Triton X-100) immunoprecipitated overnight at 4 °C with rabbit polyclonal anti-GFP; blot with anti-T7 (Fig. 1a,b)
GFP-RILP-L2 (mouse) = biological target: T6, GFP-RILP-L2 (mouse); assay: as above
GFP-RILP (mouse) = biological target: T7, GFP-RILP (mouse); assay: as above
[3] = biological target: T8, RILP-L2 (yeast two-hybrid fusions) (mouse); assay: two-hybrid; yeast with pGAD-C1 and pGBD-C1 constructs of RILP, RILP-L1 or RILP-L2; growth at 30 °C on SC-AHLW selection medium for one week (Supplementary figure S1)

binding (GST-RILP (mouse) [1]) | binding (T7-RILP-L2 (mouse)) | binding (GST-RILP (mouse) [2]) | binding (GST-RILP-L1 (mouse)) | Binder | further results
– | – | binds | binds | Rab12 (endogenous, RBL cell lysate) (protein, UniProt P35284 1-291) MLLPLLRRSCFPSSTPGGGGSGGGAERVEGARGPGARGRRPEREPYACMDPSAALHRRPAGGGLGAVSPALSGGQARRRKQPPRPADFKLQVIIIGSRGVGKTSLMERFTDDTFCEACKSTVGVDFKIKTVELRGKKIRLQIWDTAGQERFNSITSAYYRSAKGIILVYDITKKETFDDLPKWMKMIDKYASEDAELLLVGNKLDCETDREISRQQGEKFAQQITGMRFCEASAKDNFNVDEIFLKLVDDILKKMPLDVLRSELSNSILSLQPEPEIPPELPPPRPHVRCC | –
– | – | binds | – | ERFNSITSAYYRSAK [peptide 2 (Rab12 amino acids 101 to 115)] | –

More lines, now with the values behind:

Binder | binding (GST-RILP (mouse) [1]) | binding (T7-RILP-L2 (mouse)) | binding (GST-RILP (mouse) [2]) | binding (GST-RILP-L1 (mouse)) | further results
GFP-RILP-L1 (protein, UniProt Q9JJC6 1-406) MEEPLGSPPAALSALEKNVAELTVMDVYDIASLVGHEFERVIDQHGCESIARLMPKVVRVLEILEVLVSRHHVAPELDELRLELDRLRVERMDRIEKERKHQKELELVEDVWRGEAQDLLSQIAQLQEENKQLMTNLNHKDVGFSEEEFQKQEGMSERERQVMKRLKEVVDKQRDELRAKDRELGLKNEDVEALQQQQTRLMKINHDLRHRVTVVEAQGKALIEQKVELEADLQTKEQEMGSLRAELGKLRERLQGEHSQNGEEEEAEIQPQPDGEESISDAEKAALDLKDPNRPRFTLQELRDVLHERNELKSKVFLLQEELAYYKSEEIEEENRIPQPPPITHPRTSPQPESGIKRLFSFFSRDKKRLANTQRPTHIHESFGQWAITQRDDGYTEQGQEALQHL | no binding | no binding | – | – | –
GFP-RILP-L2 (protein, UniProt Q99LE1 1-197) MEDHPVREEEDGEEDEGALAKSPLQLTTDDVYDISYVVGRELMALGSDPRVTRLQFKIVRVMEMLETLVNEGSLAVEELRMERDNLKQEVEGLRKAGVSGAQVNLGPDKMVVDLTDPNRPRFTLQELREVLQERNKLKSQLLLVQEELQCYRSGLLPPRETPGGRREKDAVVAMGNGEKEERTIMKKLFSFRSGKHT | no binding | binds | – | no binding | binding (GST-RILP-L2 (mouse)): binds
T7-RILP-L2 (protein, UniProt Q99LE1 1-197) MEDHPVREEEDGEEDEGALAKSPLQLTTDDVYDISYVVGRELMALGSDPRVTRLQFKIVRVMEMLETLVNEGSLAVEELRMERDNLKQEVEGLRKAGVSGAQVNLGPDKMVVDLTDPNRPRFTLQELREVLQERNKLKSQLLLVQEELQCYRSGLLPPRETPGGRREKDAVVAMGNGEKEERTIMKKLFSFRSGKHT | – | – | – | – | binding (GFP-RILP-L1 (mouse)): no binding; binding (GFP-RILP-L2 (mouse)): binds; binding (GFP-RILP (mouse)): no binding
RILP-L2 (yeast two-hybrid fusions) (protein, UniProt Q99LE1 1-197) MEDHPVREEEDGEEDEGALAKSPLQLTTDDVYDISYVVGRELMALGSDPRVTRLQFKIVRVMEMLETLVNEGSLAVEELRMERDNLKQEVEGLRKAGVSGAQVNLGPDKMVVDLTDPNRPRFTLQELREVLQERNKLKSQLLLVQEELQCYRSGLLPPRETPGGRREKDAVVAMGNGEKEERTIMKKLFSFRSGKHT | – | – | – | – | binding [3]: binds
